According to the RNAGym collection of RNA variant scans (doi:10.1093/nar/gkz1192):
The source gives no read counts; variants with many changes may rest on few reads.

B1: CPEB3 Ribozyme (parent)
chain: UAACAGGGGGCCACAGCAGAAGCGUUCACGUCGCAGCCCCUGUCAGAUUCUGGUGAAUCUGCGAAUUCUGCUGUAUAUCUC

Variants of: B1
Test: self-cleavage, relative activity (ratio to wild type); higher = more cleavage; in vitro, sequencing
In short: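 Relative activity compares each variant's cleaved/total read fraction with that of the unmutated ribozyme. To get these fractions, barcoded CPEB3 ribozyme libraries from rounds of error-prone PCR were transcribed with T7 RNA polymerase for 5 hours at 37°C and then given 15 min of DNase I treatment before EDTA was added. The RNAs were reverse transcribed with template switching and sequenced on Illumina, and DNA sequencing linked barcodes to variants. A minimum of 5 reads applied, and three batches were averaged.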

Question: For UAACUGGGGGCCACAGCAGAAGCGUUCACGUCGCUGCCCCUGUCAGAUUCUGGUGAGUCCGCGAAUUCUGCUGUAUAUCUC [A5U A35U A57G U60C], which self-cleavage is on record?
Answer: 0.2

Question: Which self-cleavage does the source give for UAACUGGGGGCCACAGCAGAAGCGUUCACGUCGCUGCCCCUCUCAGAUUCUGGUGAAUCCGCGAAUUCCGCUAUAUAUCGC [A5U A35U G42C U60C U69C G73A U80G] here?
Answer: 0.13

Question: For UAACUGGGGGCCACAGCAGAAGCGUUCGCGUCGCAGCCCCUGUCAGAUUCUGGUGAUUCUGCGAAUUCUGCUGUAUAUCUC [A5U A28G A57U], which self-cleavage is on record?
Answer: 0.49

Question: Which self-cleavage does the source give for UAACUGGGGGCCACAGCAGAAGCGUUCUCGUCGCAGCCCCCGUCAGAUUCUGGUGAAUCUGCGAACUCUGCUGUAUAUCUC [A5U A28U U41C U66C] here?
Answer: 0.34

Question: For UAACUGGGGGCCACAGCAGAAGCGUUCACGUCGCAGCCCCUGUCAGAUUCUGGUGAAUCUGCGAAUUCUGCUGUAUGCCUC [A5U A77G U78C], which self-cleavage is on record?
Answer: 0.65

Question: For UAACUGGGGGCCACAGCAGAAGCGUUCACGUCGCAGCCCCUGUCUGAUUCUGGUGAGUCUGCGAAUUCUGCUGUAUAUCUC [A5U A45U A57G], which self-cleavage is on record?
Answer: 0.67

Question: Which self-cleavage does the source give for UAACUGGGGGCCACAGCAGAAGCGUUCACGUCGCAGCCCCUGUCAGAUUCUGGUGAAUCUGCGUAUUCAGCUGUAUAUCUC [A5U A64U U69A] here?
Answer: 0.37

Question: With UAACUGGGGGCCACAGCAGAAGCGUUCACGUCGCUGCCCCUGUCAGAUUCUUGUGAAUCUGCGAAUUCUGCUGUAUAUCUC [A5U A35U G52U] as the variant, how does the self-cleavage read?
Answer: 1.1

Question: With UAACUGGGGGCCACAGCAGAAGCGUUCACGUCGCUGCCCCUGUCAGACUCUGGUGAAUCUGCGAAUACUACCGUAUAUCUC [A5U A35U U48C U67A G70A U72C] as the variant, how does the self-cleavage read?
Answer: 0.19

Question: For UAACUGGGGGCCACAGCAGAAGCGUUCACGUCGCAGCCCCUGUCUGAUUCUGGUGAAUCGGCGAAUUCUGCUGUAUAUCUC [A5U A45U U60G], which self-cleavage is on record?
Answer: 0.74

Question: For UAACUGGGGGCCACAGCAGAAGCGUUCACGUCGCGGCCCCUGUCGGAUUCAGGUGAAUCUGCGUAUUCUGCUGUAUAUCUC [A5U A35G A45G U51A A64U], which self-cleavage is on record?
Answer: 1.01

Question: With UAACUGGGGGCCACAGCAGAAGCGUUCACGUCGCAGCCCCUGUCAGAUUCUGGUGGAUCUGUGGAUUCUGCUGUAUAUCCU [A5U A56G C62U A64G U80C C81U] as the variant, how does the self-cleavage read?
Answer: 0.3

Question: With UAACUGGGGGCCACAGCAGAAGCGUUCACGUCGCAGCCCCUGUCAGGUUCCGGUGAAUCUGCGAAUUCUGCUGUAUAUCUC [A5U A47G U51C] as the variant, how does the self-cleavage read?
Answer: 0.95

Question: For UAACUGGGGGCCACAGCAGAAGCGUUCACGUCGCAGCCCCUGUCAGGUUCUGGUGAAUCAGCGAAUUCUGCUGUAUAUCUC [A5U A47G U60A], which self-cleavage is on record?
Answer: 0.39

Question: Which self-cleavage does the source give for UAACUGGGGGCCACAGCAGAAGCGUUCACGUCGCGGCCCCUGACAGAUUCUGGUGAAUCUGCGAAUUCUGCUGUGUAUCUC [A5U A35G U43A A75G] here?
Answer: 1.3

Question: For UAACUGGGGGCCACAGCAGAAGCGUUCACGUCGCAGCCCCUGUCAGAUUCUGGUGACUCUGCGGAAUCUGCUGUUUAUCUC [A5U A57C A64G U66A A75U], which self-cleavage is on record?
Answer: 0.08

Question: With UAACUGGGGGCCACAGCAGAAGCGUUCACGUCGCAGCCCCUGUCAGGUUCAGGUGAAUCUGCGAGUUCUGCUGCAUAUCUC [A5U A47G U51A A65G U74C] as the variant, how does the self-cleavage read?
Answer: 0.83

Question: With UAACUGGGGGCCACAGCAGAGGCGUUCACGUCGCAGCCCCUGUCAGAUUCUGGUGAAUCCGCGAAUUCUGCUGUAUAUCUC [A5U A21G U60C] as the variant, how does the self-cleavage read?
Answer: 0.22

Question: Which self-cleavage does the source give for UAACUGGGGGCCACAGCAGAAGCGUUCACGUCGCUGCCCCUGUCAGAUUCUGGUGAAUCUGCGAAUUCUGCUGUAUAUCCC [A5U A35U U80C] here?
Answer: 0.67

Question: For UAACUGGGGGCCACAGCAGAAGCGUUCCCGUCGCGGCCCCUGUCGGAUUCUGGUGAAUCUGCGAAUUCUGCUGUAUAUCUC [A5U A28C A35G A45G], which self-cleavage is on record?
Answer: 1.22

Question: With UAACUGGGGGCCACAGCAGAAGCGUUCGCGUCGCAGCCCAUGUCAGAUUUUGGUGAAUCUGCGCAUUCCGCUGUAUAUCUC [A5U A28G C40A C50U A64C U69C] as the variant, how does the self-cleavage read?
Answer: 0.14

Question: Which self-cleavage does the source give for UAACUGGGGGCCACAGCAGAAGCGUUCCCGACGCGGCCCCUGUCAGAUUCUGGUGAAUCCGCGAAUUCUGCUGUAUAUCUC [A5U A28C U31A A35G U60C] here?
Answer: 0.52

Question: Which self-cleavage does the source give for UAACUGGGGGCCACAGCAGAAGCGUUCACGUCGCAGCCCCUGUCAGAUUCUGGUGAAUCUGCGAUUUCCGCUGUAUAUCUC [A5U A65U U69C] here?
Answer: 0.29

Question: Which self-cleavage does the source give for UAACUGGGGGCCACAGCAGAAGCGUUCACGUCGCAGCCCCUGUCAGGUUCUGGUAAAUCUGCGAAUUCUGCCGUAUAUCUC [A5U A47G G55A U72C] here?
Answer: 0.98

Question: Which self-cleavage does the source give for UAACUGGGGGCCACAGCAGAAGCGUUCACGUCGCAGCCCCUGUCUGAUUCUGGUGAAUCUGCGAAUACUGCUGUAUAUCUC [A5U A45U U67A] here?
Answer: 0.24

Question: Which self-cleavage does the source give for UAACUGGGGGCCACAGCAGAAGCGUUCUCGUCGCAGCCCCUGUCGGAUUCUGGUGUAUCUGCGAAUUCUGCUGUAUAUCUC [A5U A28U A45G A56U] here?
Answer: 0.57

Question: For UAACUGGGGGCCACAGCAGAAGCGUUCACGUCGCAGCCCCUGUCAGAUUCUGGUGAAUCUGCGUAUACUGCUGUAUAUCUC [A5U A64U U67A], which self-cleavage is on record?
Answer: 0.3

Question: With UAACUGGGGGCCACAGCAGAAGCGUUCACGUCGCUGCCCGUGUCAGAUUCUGGUGAAUCCGCGAAUUCUGCUGUAUAUCUC [A5U A35U C40G U60C] as the variant, how does the self-cleavage read?
Answer: 0.06

Question: For UAACUGGGGGCCACAGCAGAAGCGUUCACGUCGCAGCCCCUGUCAGUUUCUGGUGGAUCUGCGAAUUCUGCUGUAUAUCUC [A5U A47U A56G], which self-cleavage is on record?
Answer: 0.55

Question: Which self-cleavage does the source give for UAACUGGGGGCCACAGCAGAAGCGUUCACGUCGCAGCCCCUGUCAGAUUCUGGUGAAUCUGCGGAUUCUGCAGUAUGUCUC [A5U A64G U72A A77G] here?
Answer: 1.11

Question: With UAACUGGGGGCCACAGCAGAAGCGUUCACGUCGCGCCCCCUGUCAGAUUCUGGCGAAUCUGUGAAUUCUGCUGUAUAUCCC [A5U A35G G36C U54C C62U U80C] as the variant, how does the self-cleavage read?
Answer: 0.31

Question: For UAACUGGGGGCCACAGCAGAAGCGUUCACGUCGCAGCCCCUGUCAGAUUCUGGUGAUUCUGCGAAUUCUGCCGUAUAUCUC [A5U A57U U72C], which self-cleavage is on record?
Answer: 0.89

Question: Which self-cleavage does the source give for UAACUGGGGGACACAGCAGAAGCGUUCACGCCGCAGCCCCUGCCAGAUUCCGGUGAAUCUGCGAAUCCUGCUGUAUAUCUC [A5U C11A U31C U43C U51C U67C] here?
Answer: 0.05

Question: With UAACUGGGGGCCACAGCAGAAGCGUUCACGUCGCAGCCCCUGUCAGGUUCUGGUGGAUCUGCGAAUUCUGCUGUAUAUCUC [A5U A47G A56G] as the variant, how does the self-cleavage read?
Answer: 0.61
